Article PMC9911399, “Two distinct binding modes provide the RNA-binding protein RbFox with extraordinary sequence specificity”
Where a chain is given by its changes, count along the chain named. The list shows a part of the results.

T1: RBFOX1 RRM RbFoxmut (Fox-RRM*) (Homo sapiens, UniProt Q9NWB1 109-208, R118D;E147R;N151S;E152T)
T1 sequence: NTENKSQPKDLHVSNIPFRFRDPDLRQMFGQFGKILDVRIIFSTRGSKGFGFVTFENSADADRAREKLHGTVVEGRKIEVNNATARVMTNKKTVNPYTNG

B1: AAUAGUA (DNA:RNA)
RNA: GGGAGACCGGAAUUCAGAUUGUCCAAUAGUAUUAAAUCCCGUCGUAGCCACCA
DNA 1: CAATCTGAATTCCGGTCTCCC
DNA 2: TGGTGGCTACGACGGGATT
B2: UCGACGA (DNA:RNA)
RNA: B1 RNA with A25U, A26C, U27G, G29C, U30G
DNA 1: CAATCTGAATTCCGGTCTCCC
DNA 2: TGGTGGCTACGACGGGATT
B3: CCUCCUA (DNA:RNA)
RNA: B1 RNA with A25C, A26C, A28C, G29C
DNA 1: CAATCTGAATTCCGGTCTCCC
DNA 2: TGGTGGCTACGACGGGATT
B4: UUGAAUC (DNA:RNA)
RNA: B1 RNA with A25U, A26U, U27G, G29A, A31C
DNA 1: CAATCTGAATTCCGGTCTCCC
DNA 2: TGGTGGCTACGACGGGATT
B5: CCAAUUG (DNA:RNA)
RNA: B1 RNA with A25C, A26C, U27A, G29U, A31G
DNA 1: CAATCTGAATTCCGGTCTCCC
DNA 2: TGGTGGCTACGACGGGATT
B6: ACUUCAU (DNA:RNA)
RNA: B1 RNA with A26C, A28U, G29C, U30A, A31U
DNA 1: CAATCTGAATTCCGGTCTCCC
DNA 2: TGGTGGCTACGACGGGATT
B7: CAUUCCG (DNA:RNA)
RNA: B1 RNA with A25C, A28U, G29C, U30C, A31G
DNA 1: CAATCTGAATTCCGGTCTCCC
DNA 2: TGGTGGCTACGACGGGATT
B8: ACAGUGC (DNA:RNA)
RNA: B1 RNA with A26C, U27A, A28G, G29U, U30G, A31C
DNA 1: CAATCTGAATTCCGGTCTCCC
DNA 2: TGGTGGCTACGACGGGATT
B9: GUACCUU (DNA:RNA)
RNA: B1 RNA with A25G, A26U, U27A, A28C, G29C, A31U
DNA 1: CAATCTGAATTCCGGTCTCCC
DNA 2: TGGTGGCTACGACGGGATT
B10: ACAUGCA (DNA:RNA)
RNA: B1 RNA with A26C, U27A, A28U, U30C
DNA 1: CAATCTGAATTCCGGTCTCCC
DNA 2: TGGTGGCTACGACGGGATT
B11: GUUGUAA (DNA:RNA)
RNA: B1 RNA with A25G, A26U, A28G, G29U, U30A
DNA 1: CAATCTGAATTCCGGTCTCCC
DNA 2: TGGTGGCTACGACGGGATT
B12: GGAGCCA (DNA:RNA)
RNA: B1 RNA with A25G, A26G, U27A, A28G, G29C, U30C
DNA 1: CAATCTGAATTCCGGTCTCCC
DNA 2: TGGTGGCTACGACGGGATT
B13: AAAGCAU (DNA:RNA)
RNA: B1 RNA with U27A, A28G, G29C, U30A, A31U
DNA 1: CAATCTGAATTCCGGTCTCCC
DNA 2: TGGTGGCTACGACGGGATT
B14: ACAUGCG (DNA:RNA)
RNA: B1 RNA with A26C, U27A, A28U, U30C, A31G
DNA 1: CAATCTGAATTCCGGTCTCCC
DNA 2: TGGTGGCTACGACGGGATT
B15: GAUAGCU (DNA:RNA)
RNA: B1 RNA with A25G, U30C, A31U
DNA 1: CAATCTGAATTCCGGTCTCCC
DNA 2: TGGTGGCTACGACGGGATT
B16: UGUGCUC (DNA:RNA)
RNA: B1 RNA with A25U, A26G, A28G, G29C, A31C
DNA 1: CAATCTGAATTCCGGTCTCCC
DNA 2: TGGTGGCTACGACGGGATT
B17: UUCGGGA (DNA:RNA)
RNA: B1 RNA with A25U, A26U, U27C, A28G, U30G
DNA 1: CAATCTGAATTCCGGTCTCCC
DNA 2: TGGTGGCTACGACGGGATT
B18: CUAUGAC (DNA:RNA)
RNA: B1 RNA with A25C, A26U, U27A, A28U, U30A, A31C
DNA 1: CAATCTGAATTCCGGTCTCCC
DNA 2: TGGTGGCTACGACGGGATT
B19: CCCCGAC (DNA:RNA)
RNA: B1 RNA with A25C, A26C, U27C, A28C, U30A, A31C
DNA 1: CAATCTGAATTCCGGTCTCCC
DNA 2: TGGTGGCTACGACGGGATT
B20: UGGUGAC (DNA:RNA)
RNA: B1 RNA with A25U, A26G, U27G, A28U, U30A, A31C
DNA 1: CAATCTGAATTCCGGTCTCCC
DNA 2: TGGTGGCTACGACGGGATT
B21: CUCCCUA (DNA:RNA)
RNA: B1 RNA with A25C, A26U, U27C, A28C, G29C
DNA 1: CAATCTGAATTCCGGTCTCCC
DNA 2: TGGTGGCTACGACGGGATT
B22: UGCGCCA (DNA:RNA)
RNA: B1 RNA with A25U, A26G, U27C, A28G, G29C, U30C
DNA 1: CAATCTGAATTCCGGTCTCCC
DNA 2: TGGTGGCTACGACGGGATT
B23: GAUUAGG (DNA:RNA)
RNA: B1 RNA with A25G, A28U, G29A, U30G, A31G
DNA 1: CAATCTGAATTCCGGTCTCCC
DNA 2: TGGTGGCTACGACGGGATT
B24: UUUUGUA (DNA:RNA)
RNA: B1 RNA with A25U, A26U, A28U
DNA 1: CAATCTGAATTCCGGTCTCCC
DNA 2: TGGTGGCTACGACGGGATT
B25: CCGAGUA (DNA:RNA)
RNA: B1 RNA with A25C, A26C, U27G
DNA 1: CAATCTGAATTCCGGTCTCCC
DNA 2: TGGTGGCTACGACGGGATT
B26: AGAUCAG (DNA:RNA)
RNA: B1 RNA with A26G, U27A, A28U, G29C, U30A, A31G
DNA 1: CAATCTGAATTCCGGTCTCCC
DNA 2: TGGTGGCTACGACGGGATT
B27: AUUUUCA (DNA:RNA)
RNA: B1 RNA with A26U, A28U, G29U, U30C
DNA 1: CAATCTGAATTCCGGTCTCCC
DNA 2: TGGTGGCTACGACGGGATT
B28: CUGUUUG (DNA:RNA)
RNA: B1 RNA with A25C, A26U, U27G, A28U, G29U, A31G
DNA 1: CAATCTGAATTCCGGTCTCCC
DNA 2: TGGTGGCTACGACGGGATT
B29: CCCAUUU (DNA:RNA)
RNA: B1 RNA with A25C, A26C, U27C, G29U, A31U
DNA 1: CAATCTGAATTCCGGTCTCCC
DNA 2: TGGTGGCTACGACGGGATT
B30: UGUUUCG (DNA:RNA)
RNA: B1 RNA with A25U, A26G, A28U, G29U, U30C, A31G
DNA 1: CAATCTGAATTCCGGTCTCCC
DNA 2: TGGTGGCTACGACGGGATT
B31: GGUCAAA (DNA:RNA)
RNA: B1 RNA with A25G, A26G, A28C, G29A, U30A
DNA 1: CAATCTGAATTCCGGTCTCCC
DNA 2: TGGTGGCTACGACGGGATT

target: T1, RBFOX1 RRM RbFoxmut (Fox-RRM*); assay: EMSA; HiTS-Eq, 1 nM pool, 10 min; buffer printed only for the single-RNA assays: 10 mM Tris pH 7.5, 150 mM NaCl, 3.4 mM EDTA, 0.001% NP-40, 30 C; settings: tags: His6 N-terminal (pET28a); label: 5' 32P
In short: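 A pool of RNA with 7 randomized nucleotides, 5′-radiolabelled and with DNA-annealed flanks, was equilibrated at 1 nM for 10 min in 50 µL with purified RbFox RRM, wild type or mutant, across increasing protein concentrations. Free RNA was separated by 8% native PAGE, excised, reverse-transcribed, barcoded by PCR and sequenced. Relative association constants were obtained from read-count changes of each RNA species versus the control reaction and normalised to the cognate motif.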

First: B1
Second: B2
The binding signal of the first is higher: 0.151 KA relative to UGCAUGU for the first, 0.0457 KA relative to UGCAUGU for the second.

First: B3
Second: B4
The binding signal of the first is lower: 0.0593 KA relative to UGCAUGU for the first, 0.374 KA relative to UGCAUGU for the second.

Compared with B5, B6 is lower in binding signal: 0.0976 KA relative to UGCAUGU for the first, 0.0922 KA relative to UGCAUGU for the second.

Compared with B7, B8 is higher in binding signal: 0.0958 KA relative to UGCAUGU for the first, 0.111 KA relative to UGCAUGU for the second.

First: B9
Second: B10
The binding signal of the first is lower: 0.0809 KA relative to UGCAUGU for the first, 0.223 KA relative to UGCAUGU for the second.

Compared with B11, B12 is lower in binding signal: 0.136 KA relative to UGCAUGU for the first, 0.0854 KA relative to UGCAUGU for the second.

First: B13
Second: B14
The binding signal of the first is lower: 0.0838 KA relative to UGCAUGU for the first, 0.139 KA relative to UGCAUGU for the second.

First: B15
Second: B16
The binding signal of the first is lower: 0.0865 KA relative to UGCAUGU for the first, 0.0915 KA relative to UGCAUGU for the second.

First: B17
Second: B18
The binding signal of the first is lower: 0.0532 KA relative to UGCAUGU for the first, 0.0722 KA relative to UGCAUGU for the second.

First: B19
Second: B20
The binding signal of the first is higher: 0.116 KA relative to UGCAUGU for the first, 0.0583 KA relative to UGCAUGU for the second.

First: B21
Second: B22
The binding signal of the first is lower: 0.0781 KA relative to UGCAUGU for the first, 0.096 KA relative to UGCAUGU for the second.

Compared with B23, B24 is higher in binding signal: 0.0809 KA relative to UGCAUGU for the first, 0.212 KA relative to UGCAUGU for the second.

First: B25
Second: B26
The binding signal of the first is higher: 0.139 KA relative to UGCAUGU for the first, 0.0757 KA relative to UGCAUGU for the second.

Compared with B27, B28 is higher in binding signal: 0.105 KA relative to UGCAUGU for the first, 0.75 KA relative to UGCAUGU for the second.

Compared with B29, B30 is higher in binding signal: 0.0746 KA relative to UGCAUGU for the first, 0.22 KA relative to UGCAUGU for the second.

With B31 the binding signal was 0.0689 KA relative to UGCAUGU.
